Some of the results follow.
T1: UNK ZnF1-6 (called full-length) (human, UniProt Q9C0B0 30-357)
T1 sequence: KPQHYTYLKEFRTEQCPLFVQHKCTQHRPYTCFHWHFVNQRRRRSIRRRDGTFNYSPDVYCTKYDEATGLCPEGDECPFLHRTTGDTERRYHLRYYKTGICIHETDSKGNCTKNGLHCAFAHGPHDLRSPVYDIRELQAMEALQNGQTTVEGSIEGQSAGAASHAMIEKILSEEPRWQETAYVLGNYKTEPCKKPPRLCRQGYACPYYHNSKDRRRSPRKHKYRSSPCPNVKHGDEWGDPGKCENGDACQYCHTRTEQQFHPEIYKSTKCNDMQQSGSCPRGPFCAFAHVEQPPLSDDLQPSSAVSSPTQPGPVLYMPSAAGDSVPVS

B1: chr7:139079551:139079652:-|CDS|ENSG00000105939|unk|total|mutant (ssRNA)
RNA: GGGAGUUCUACAGUCCGACGAUCAAUGCUGAUGGAGUGGCCACAGAUAUAACUUCUACCAGAUCCUUAAAUUACAAAAGCACCCGCAGCGGUCACAGAGAAAUAUCAUCACCCCGGAUUCAGGAUGCUGGACCUGCUUCCCGACAACAGAGGAUUGAGCAUCA
B2: chr2:9585027:9585123:-|3pUTR|ENSG00000134308|msi1_unk|FALSE|overlapping (ssRNA)
RNA: GGGAGUUCUACAGUCCGACGAUCGGAAAACUUCAUUCCUUGAUUUGUGUUUGUCUUGGCCUUCCUGGUGUGCAGUACUGCUGUAGAAAAGUAUUAAUAGCUUCAUUUCAUAUAAACAUAAGUAACUCCCAAACACUUAUGUAGCAACAGAGGAUUGAGCAUCA
B3: chr4:108667705:108667793:+|3pUTR|ENSG00000198856|msi1_unk|total|mutant (ssRNA)
RNA: GGGAGUUCUACAGUCCGACGAUCUCUGGACAGUUGAUCAGCUUUACCUAUGGUGCUUUGCCUUUAACCCGAGUGUGUGAUGGCCGAUUAUUUCAGAUAUGUAUGUAAAACUGUUUCCUGAACAAUAAGAUGUAUGAACGGAGCCAACAGAGGAUUGAGCAUCA
B4: chr9:132694550:132694651:+|3pUTR|ENSG00000125484|unk|FALSE|bound_elsewhere (ssRNA)
RNA: GGGAGUUCUACAGUCCGACGAUCUUCCUGAAGAUUACAUAUCAGUGUCCUGCGUUUUUAUCUAAUAUUAGAGCUGAGGUUCCUAGGAAAAUUUUGAAGUGGGGAAGAUUAUGGAGAAAAUGAAAUGGAAAUUUGGGGAGGGUGCAACAGAGGAUUGAGCAUCA
B5: chr16:66721972:66722075:-|3pUTR|ENSG00000135720|unk|total|mutant (ssRNA)
RNA: GGGAGUUCUACAGUCCGACGAUCUUUUUAAUUCAGUUUUUUAAAAAAACAAAUGUAUUGUGGCUUCCAGUUACCAGGUUGUCCCGGUAAUGACAGUAAACUGACUGCCGAAUGAUAAUUGUGGUACCGUGACCAACCGAUGCCCAACAGAGGAUUGAGCAUCA
B6: chr20:63196482:63196583:-|3pUTR|ENSG00000149658|msi1|FALSE|unique (ssRNA)
RNA: GGGAGUUCUACAGUCCGACGAUCUGAUUUUUGCCCAGAUGGAUCUGCAUUUAUUUGUACUUUUUCUAUGUAUUAUAAUCCUGUAGAAGUCACUAAUAAAGGAGUAUUUUUUUUGUCAGCUUAUCAAUCAGACUGAUCUAAUGUCAACAGAGGAUUGAGCAUCA
B7: chr1:86745841:86745942:+|3pUTR|ENSG00000097033|msi1|total|mutant (ssRNA)
RNA: GGGAGUUCUACAGUCCGACGAUCAUGGUGCAGUUCAGAAUUGUUUAAAUAAGCUCUGUGCCACUGAGCUUAAUCUGAAAGUACCGUGACAUGUGAAGGAUGCACAUAUGAAUGAAAAACUAAAAUAAUUGCCGGCUCUUCUAUCAACAGAGGAUUGAGCAUCA
B8: chr15:58597255:58597356:-|3pUTR|ENSG00000137845|unk|total|mutant (ssRNA)
RNA: GGGAGUUCUACAGUCCGACGAUCUGGAAAAGGAACCCAAUUUUCUUAUGAACAGAUAUUUUUAACUUAAUGGCACAAAGUCUCCGAAUAUUAUUAUGUGCCCCGUGUUCCCUGUUCUUCGUUGCUGCAUUUUCUUCACUUGCACAACAGAGGAUUGAGCAUCA
B9: ENSG00000100350:stop:overlap|stop_codon|ENSG00000100350|stop_codon|NA|stop_codon (ssRNA)
RNA: GGGAGUUCUACAGUCCGACGAUCGGCGACCAAGAGCCACUAGGUUCCCCCCUGGCUCCAGGGCCUCUGGCUCAGUCCGUCGAUAGCAACAAAGAGGAGCUCUGACUGUCCCUUCCUAAGCUGUGGGCACAGUGGCCAGGCCUCCAACAGAGGAUUGAGCAUCA
B10: chr2:200815332:200815484:+|CDS|ENSG00000082153|unk|total|mutant (ssRNA)
RNA: GGGAGUUCUACAGUCCGACGAUCUCAGUUUCAAGACUGUAUUAUUCAAGGCUUAACUGAAACCGGUACUGAUUUGGAAGCAGCCGCUAAGUUUCUUGAUGCUUCUGGAGCAAAACUUGAUUACCGUCGAUAUGCAGAAACACUCAACAGAGGAUUGAGCAUCA
B11: chr1:45660322:45660423:-|5pUTR|ENSG00000159592|unk|total|mutant (ssRNA)
RNA: GGGAGUUCUACAGUCCGACGAUCUCCCCUUCCCCCCUUCCCCUUUUCCCCUUUCCCCUUUUGGAAACGUGUCAGGAACCAAACCGUUUAAGAUGAGCAGUUGAGGGGACUGAGAGAGUGAUCGACACAGAACCUGGCUUCUUCCAACAGAGGAUUGAGCAUCA
B12: chr3:149369464:149369565:-|3pUTR|ENSG00000169908|msi1_unk|total|mutant (ssRNA)
RNA: GGGAGUUCUACAGUCCGACGAUCAAAUAACAUUCCAAUCACUAUUGUAUAUAUGUGCAUGUAUUUUUUAAAUUAAAGAUGUCCCGUUGCUUUUUAUAAGACCAAGAAGGAGAAAAUCCGACAACCUGGAAAGAUUUUUGUUUUCAACAGAGGAUUGAGCAUCA
B13: chr1:92387783:92387894:+|3pUTR|ENSG00000122484|unk|FALSE|unique (ssRNA)
RNA: GGGAGUUCUACAGUCCGACGAUCGGGAGCUUAGUGGGCAAGGAGGUAGGGAUAUAAUUUCUCUUCUUGGCUCCACCAGUAAUUAGCUCUGUGGCCCAGUCACCUAAACUUUCUGGACUUCAGUUCAGGUUGUAUGGCAGUAGGCAACAGAGGAUUGAGCAUCA
B14: chr11:61866962:61867357:+|3pUTR|ENSG00000134824|msi1|FALSE|unique (ssRNA)
RNA: GGGAGUUCUACAGUCCGACGAUCAGAUUCAGGGGAAGGGCAGGCACCAACAACUCAGAAUGGGGGCUUUCGGGGAGGGCGCCUAGUCCCCCCAGCUCUAAGCAGCCAGGAGGGACCUGCAUCUAAGCAUCUGGGUUGCCAUGGCAACAGAGGAUUGAGCAUCA

Biological target: T1, UNK ZnF1-6 (called full-length)
Assay: nsRBNS (natural sequence RNA bind-n-seq); RBNS binding buffer (assumed for nsRBNS): 25 mM Tris pH 7.5, 150 mM KCl, 3 mM MgCl2, 0.01% Triton X-100, 500 ug/ml BSA, 20 U/ml SUPERase-In, 4 C; UNK is unkempt and MSI1 is Musashi-1; names of the RNAs are library labels; protein concentration not given here; high values mean tight binding

Binder | binding signal
B1 | 0.623 enrichment R
B2 | 1.24 enrichment R
B3 | 0.465 enrichment R
B4 | 1.38 enrichment R
B5 | 0.37 enrichment R
B6 | 0.612 enrichment R
B7 | 0.293 enrichment R
B8 | 0.802 enrichment R
B9 | 0.741 enrichment R
B10 | 0.255 enrichment R
B11 | 0.581 enrichment R
B12 | 0.91 enrichment R
B13 | 0.832 enrichment R
B14 | 0.948 enrichment R

Reference: publication PMC12136788
